According to the supplement of paper PMC6531468:
The list shows a part of the results. Values come from read counts of a selection and are noisy. Each score is taken over the longer molecules that contain the sequence shown.

Columns and labels:
Experiment in all cases: 6-mer SELEX enrichment z-score vs GST control; IMP3 is the RNA-binding protein IGF2BP3; higher = more enriched by binding
IMP3 KH1-4 = conditions: construct: KH1-4 (164-579); SELEX round: R4
Method: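 SELEX-seq with GST-tagged IMP3 KH1-4 (Pro164-Lys579) and an N40 RNA pool, round 4. 6-mer z-score of sequence-tag enrichment normalised to the corresponding GST SELEX round; RNA k-mers written as DNA (T for U).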

IMP3 RRM1-2 = conditions: construct: RRM1-2 (1-163); SELEX round: R2
Method: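 SELEX-seq with GST-tagged IMP3 RRM1-2 (Met1-Asn163) and an N40 RNA pool, round 2. 6-mer enrichment z-score normalised to GST SELEX. RNA written as DNA (T = U).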

IMP3 full-length = IMP3 full-length (UniProt O00425); conditions: construct: FL IMP3 (1-579); SELEX round: R4
Method: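 SELEX-seq with GST-tagged full-length IMP3 and an N40 RNA pool, round 4. Each 6-mer is scored as an enrichment z-score of sequence tags containing it, normalised to the matching GST SELEX round. RNA written as DNA (T = U).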

IMP3 KH1-2 = conditions: construct: KH1-2 (164-376); SELEX round: R4
Method: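 SELEX-seq with GST-tagged IMP3 KH1-2 (Pro164-Phe376) and an N40 RNA pool, round 4 (stringent 300/600 mM KCl washes). 6-mer z-score of sequence-tag enrichment normalised to the corresponding GST SELEX round; RNA k-mers written as DNA (T for U).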

IMP3 KH3-4 = conditions: construct: KH3-4 (377-579); SELEX round: R4
Method: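 SELEX-seq with GST-tagged IMP3 KH3-4 (Pro377-Lys579) and an N40 RNA pool, round 4. 6-mer z-score of sequence-tag enrichment normalised to the corresponding GST SELEX round; RNA k-mers written as DNA (T for U).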

IMP3 KH1-2, sequence (chain, as listed by the source): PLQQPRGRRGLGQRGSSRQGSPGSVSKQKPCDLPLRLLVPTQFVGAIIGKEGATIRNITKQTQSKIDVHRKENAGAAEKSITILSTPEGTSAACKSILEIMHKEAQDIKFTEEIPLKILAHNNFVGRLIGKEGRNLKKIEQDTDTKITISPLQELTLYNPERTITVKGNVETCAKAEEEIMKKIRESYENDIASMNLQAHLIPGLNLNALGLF
IMP3 RRM1-2, sequence (chain, as listed by the source): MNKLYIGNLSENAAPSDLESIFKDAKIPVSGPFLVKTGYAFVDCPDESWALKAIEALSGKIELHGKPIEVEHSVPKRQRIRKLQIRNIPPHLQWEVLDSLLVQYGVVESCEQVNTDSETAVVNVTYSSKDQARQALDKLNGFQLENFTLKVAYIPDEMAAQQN
UniProt O00425, sequence (O00425 whole entry): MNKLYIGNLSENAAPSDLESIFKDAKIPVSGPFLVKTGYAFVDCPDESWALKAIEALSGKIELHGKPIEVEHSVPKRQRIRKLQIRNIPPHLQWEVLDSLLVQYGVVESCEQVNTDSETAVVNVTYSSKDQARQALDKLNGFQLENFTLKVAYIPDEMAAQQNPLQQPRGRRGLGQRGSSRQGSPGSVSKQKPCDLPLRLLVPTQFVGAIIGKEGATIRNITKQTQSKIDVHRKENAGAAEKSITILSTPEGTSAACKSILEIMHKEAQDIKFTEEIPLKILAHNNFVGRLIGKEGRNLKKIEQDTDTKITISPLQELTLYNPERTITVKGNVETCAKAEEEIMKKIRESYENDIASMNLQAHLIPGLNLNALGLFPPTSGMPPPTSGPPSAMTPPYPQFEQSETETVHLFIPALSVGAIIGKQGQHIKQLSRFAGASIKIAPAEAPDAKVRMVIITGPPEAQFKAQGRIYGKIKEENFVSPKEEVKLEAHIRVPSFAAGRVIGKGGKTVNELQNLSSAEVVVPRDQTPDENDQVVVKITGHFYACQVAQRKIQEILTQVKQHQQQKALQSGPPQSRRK
IMP3 KH1-4, sequence (chain, as listed by the source): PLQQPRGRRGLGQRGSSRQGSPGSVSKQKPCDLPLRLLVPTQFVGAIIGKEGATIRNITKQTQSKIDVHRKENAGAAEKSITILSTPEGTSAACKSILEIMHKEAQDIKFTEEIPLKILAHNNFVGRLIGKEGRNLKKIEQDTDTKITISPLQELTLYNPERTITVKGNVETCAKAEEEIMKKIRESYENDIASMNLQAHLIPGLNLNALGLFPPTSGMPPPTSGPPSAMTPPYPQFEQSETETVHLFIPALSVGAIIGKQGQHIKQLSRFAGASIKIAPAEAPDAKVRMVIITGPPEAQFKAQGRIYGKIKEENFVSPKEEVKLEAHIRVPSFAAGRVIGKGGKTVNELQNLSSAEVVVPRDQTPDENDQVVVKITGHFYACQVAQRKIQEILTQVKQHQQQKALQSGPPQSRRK
IMP3 KH3-4, sequence (chain, as listed by the source): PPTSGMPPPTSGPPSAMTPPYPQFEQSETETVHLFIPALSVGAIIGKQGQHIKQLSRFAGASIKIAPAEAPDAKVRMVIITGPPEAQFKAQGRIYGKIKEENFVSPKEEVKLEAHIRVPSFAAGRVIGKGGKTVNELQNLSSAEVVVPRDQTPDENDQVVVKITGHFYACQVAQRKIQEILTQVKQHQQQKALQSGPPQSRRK

| Sequence | 6-mer SELEX enrichment z-score (IMP3 KH1-4) | 6-mer SELEX enrichment z-score (IMP3 RRM1-2) | 6-mer SELEX enrichment z-score (IMP3 full-length) | 6-mer SELEX enrichment z-score (IMP3 KH1-2) | 6-mer SELEX enrichment z-score (IMP3 KH3-4) |
| --- | --- | --- | --- | --- | --- |
| ACTGGC | 0.493 | 0.274 | 0.603 | 0.331 | 0.225 |
| GCCTCT | -0.579 | 0.141 | -0.123 | -0.439 | -0.463 |
| TACAGC | 0.21 | 0.403 | 0.561 | 0.254 | 0.001 |
| GCCCAG | -1.38 | -0.605 | -0.604 | -1.2 | -1.5 |
| TAAGCC | -0.351 | -0.565 | -0.644 | -0.35 | -0.434 |
| CTTATG | 0.333 | 0.117 | -0.21 | 0.197 | 0.445 |
| TTAAGA | 0.266 | -0.576 | -0.561 | 0.122 | 1.01 |
| GTAAGT | 0.072 | -0.107 | -0.121 | -0.018 | 0.192 |
| GAAGGA | 0.85 | -1.05 | -0.261 | 0.564 | 0.868 |
| CAGTCG | 1.38 | 0.35 | 1.36 | 0.97 | 0.634 |
| AATTAG | 0.703 | -0.296 | -0.199 | 0.464 | 1.21 |
| GCCGCC | 0.365 | -0.323 | 0.728 | 0.553 | -0.395 |
| TGTGGA | 0.281 | -0.141 | -0.249 | 0.11 | 0.263 |
| ACCTTA | -0.516 | -0.554 | -0.988 | -0.527 | -0.615 |
| GCAACC | -0.224 | 0.678 | 0.465 | -0.358 | -0.922 |
| TTAACT | 0.819 | -0.034 | -0.229 | 0.855 | 1.24 |
| CCGGTC | -0.09 | -0.132 | 0.251 | -0.046 | -0.346 |
| AGAAAA | 0.045 | -2.29 | -1.78 | 0.014 | 1.51 |
| GCAGCA | 1.42 | 0.815 | 2.09 | 1.13 | 0.706 |
| CCGTCG | -0.199 | 0.119 | 0.462 | -0.184 | -0.418 |
| GCCTGC | -0.485 | -0.023 | -0.045 | -0.273 | -0.583 |
| GCTTCA | 0.155 | 0.596 | 0.498 | 0.244 | 0.048 |

| Sequence | 6-mer SELEX enrichment z-score (IMP3 KH1-4) | 6-mer SELEX enrichment z-score (IMP3 RRM1-2) | 6-mer SELEX enrichment z-score (IMP3 full-length) | 6-mer SELEX enrichment z-score (IMP3 KH1-2) | 6-mer SELEX enrichment z-score (IMP3 KH3-4) |
| --- | --- | --- | --- | --- | --- |
| GTAGAC | -1.18 | -0.319 | -0.653 | -1.06 | -1.14 |
| TTATGA | 0.909 | -0.265 | -0.208 | 0.604 | 1.32 |
| AGCCTT | -0.381 | -0.073 | -0.435 | -0.356 | -0.445 |
| GGGGTG | 0.67 | 0.323 | 0.472 | 1.01 | 0.938 |
| TCGTGA | -0.139 | -0.13 | -0.197 | -0.23 | -0.064 |
| GTCAAC | -0.372 | 0.319 | 0.337 | -0.622 | -0.626 |
| TACATC | 0.889 | 1.01 | 1.32 | 0.937 | 0.338 |
| AGCTTA | -0.565 | -0.066 | -0.472 | -0.448 | -0.343 |
| ATTCCG | 0.711 | -0.145 | 0.4 | 0.98 | 0.259 |
| GTGAAA | -0.231 | -1.37 | -1.02 | -0.432 | 0.148 |
| AATCCT | 0.119 | -0.458 | -0.632 | 0.063 | -0.184 |
| AGACGT | -1.27 | -0.652 | -0.632 | -1.21 | -1.06 |
| GCATGC | 0.564 | 0.664 | 1.06 | 0.404 | 0.197 |
| CAGCCA | 0.31 | 0.536 | 0.771 | 0.295 | -0.41 |
| GGTATC | -0.527 | 0.455 | -0.035 | -0.412 | -0.348 |
| AGGATG | 1.03 | -0.333 | 0.188 | 0.789 | 1.17 |
| AGCGTT | -2.04 | 0.088 | -0.909 | -1.83 | -1.69 |
| GTTCGT | -0.208 | 0.369 | -0.095 | -0.187 | -0.06 |
| AAGACA | 0.626 | -0.178 | -0.226 | 0.433 | 0.858 |
| CTTGGA | -0.546 | 0.034 | -0.255 | -0.488 | -0.549 |
| TTCGTT | 0.215 | 0.467 | 0.087 | 0.213 | 0.297 |
| CCGACA | -1.29 | -0.432 | -0.4 | -1.04 | -1.63 |

| Sequence | 6-mer SELEX enrichment z-score (IMP3 KH1-4) | 6-mer SELEX enrichment z-score (IMP3 RRM1-2) | 6-mer SELEX enrichment z-score (IMP3 full-length) | 6-mer SELEX enrichment z-score (IMP3 KH1-2) | 6-mer SELEX enrichment z-score (IMP3 KH3-4) |
| --- | --- | --- | --- | --- | --- |
| CTCCTT | 0.65 | 0.189 | 0 | 0.628 | 0.307 |
| AGCTAT | -0.191 | 0.058 | -0.15 | -0.159 | 0.031 |
| GGTGGG | 0.739 | 0.281 | 0.596 | 1.01 | 0.803 |
| TTTAAT | 1.36 | 0.187 | 0.229 | 1.19 | 2.09 |
| ACTGAC | -0.073 | -0.677 | -0.846 | 0.001 | -0.44 |
| CACTAG | 0.285 | 0.499 | 0.376 | 0.066 | 0.066 |
| AATTAT | 1.6 | -0.246 | 0.183 | 1.4 | 2.41 |
| ACGTCG | -0.29 | 0.176 | 0.632 | -0.418 | -0.346 |
| TTTGAA | 0.542 | -0.547 | -0.413 | 0.312 | 1 |
| ACTGGA | 0.133 | -0.502 | -0.393 | -0.058 | -0.096 |
| CAGTGT | -0.402 | 0.259 | -0.086 | -0.449 | -0.425 |
| GTCACG | -0.562 | -0.002 | 0.248 | -0.613 | -0.634 |
| GCTAAC | -0.302 | -0.116 | -0.276 | -0.324 | -0.319 |
| TATCGT | 0.151 | 0.318 | 0.057 | 0.044 | 0.237 |
| GACGAC | -1.03 | -1.1 | -0.644 | -1.05 | -1.29 |
| CTCTCG | -0.712 | 0.47 | -0.07 | -0.61 | -0.569 |
| GACCGA | -1.97 | -1.67 | -1.59 | -1.73 | -1.92 |
| CCTTGA | -1.29 | -0.567 | -1.27 | -1.29 | -1.36 |
| TAGGGA | 0.525 | -0.111 | 0.065 | 0.386 | 0.616 |
| CTGTCA | 0.389 | 0.291 | 0.381 | 0.251 | 0.017 |
| GCAAGC | -0.039 | 0.421 | 0.7 | -0.032 | -0.179 |
